From PubChem BioAssay AID686979 (National Center for Advancing Translational Sciences (NCATS), 2013)
The campaign covered roughly 420,000 compounds. About 50,000 (12%) were called active. Inconclusive means that the source gave no clear call. Such entries were picked first, then a sample of the others. Calls follow the shape of the dose curve; as a rule, active = well fitted inhibition curve with a large enough effect; inconclusive = small, poorly fitted or top-dose-only effect; inactive = flat fitted curve, though single readings scatter. No potency is given beside an inconclusive call; the fits are too rough.
% is scaled to controls: 0 for no effect and ±100 for the full control effect; potency is read from the fitted curve at half-maximal effect; tags tell the direction and shape of the fitted curve.

Assay: qHTS for Inhibitors of human tyrosyl-DNA phosphodiesterase 1 (TDP1): qHTS in cells in presence of CPT; also: nearly all actives have a fitted effect of over 55% in size
Settings: chicken DT40 Tdp1-/-;hTDP1 cells + 20 nM CPT, ATP luminescence, 48 h; activity change, negative = growth inhibition: at 46.2 µM (top of the series)
Method in brief: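 Cell growth measured by CellTiter-Glo luminescence after a minimum 48 h, 37 C compound exposure with 20 nM CPT in Tdp1-knockout DT40 cells stably expressing hTDP1, seeded 400/well; qHTS titration format.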
With `COc1ccc(NC(=O)CSc2nc(O)c(C/C=C/c3ccccc3)c(=O)[nH]2)cc1` the “activity change, negative = growth inhibition” value was inactive: -1.79%.
For `CC(C)CC(c1nnnn1C(C)(C)C)N1CCN(Cc2ccccc2)CC1` (stereo unspecified), the “activity change, negative = growth inhibition” value was inactive: -7.84%.
For `O=C(O)C/C(=C\c1cccc(NC(=O)c2ccccc2Cl)c1)c1nc2ccccc2s1`, the Potency was inconclusive [inhibitor, partial curve, poor fit].
For `CC(=O)Nc1cccc(Oc2ccc3c(c2)C(=O)NC3=O)c1`, the “activity change, negative = growth inhibition” value was inactive: -20.3%.
For `Cc1c(N=Cc2cc3c(cc2Cl)OCO3)c(=O)n(-c2ccccc2)n1C`, the Potency was inconclusive [inhibitor, single point].
In the case of `CCC(C(=O)Nc1cccc(C(F)(F)F)c1)c1ccccc1` (stereo unspecified), the Potency is reported as inconclusive [inhibitor, single point].
In the case of `c1cn2c(Nc3ccc4c(c3)OCCO4)c(-c3ccc(N4CCOCC4)cc3)nc2cn1`, the Potency is reported as inconclusive [inhibitor, single point].
In the case of `CCOC(=O)[C@H](CCc1ccccc1)N[C@@H](C)C(=O)N1CC2(C[C@H]1C(=O)O)SCCS2`, the “activity change, negative = growth inhibition” value is reported as inactive: -0.389%.
For `COc1ccccc1CNC(=O)CCC1N=C2c3ccccc3N=C(SCc3ccccc3Cl)N2C1=O` (stereo unspecified), the Potency was inconclusive [inhibitor, single point].
For `O=S(=O)(c1ccc(Br)cc1)N1CCOCC1`, the “activity change, negative = growth inhibition” value was inactive: -5.24%.
With `COc1ccc(N2CCN(c3cncc(C)n3)CC2)cc1` the “activity change, negative = growth inhibition” value was inactive: -19.2%.
In the case of `Cc1onc(-c2ccccc2Cl)c1C(=O)Nc1ccc(S(=O)(=O)N2CCCC2)cc1`, the Potency is reported as inconclusive [inhibitor, single point].
For `COc1cc(SC)ccc1C(=O)Nc1nc2ccccc2[nH]1`, the Potency was active: 3.66 µM.
In the case of `CCOc1ccccc1OCC(=O)NCc1ccco1`, the Potency is reported as active: 29.1 µM.
For `COc1ccc(/C(N)=N/OC(=O)c2cccs2)cc1`, the activity change, negative = growth inhibition was inconclusive: -30.4% [inhibitor].
With `COc1ccc(NC(=O)Nc2ccccc2F)c(C)c1` the Potency was inconclusive [inhibitor, single point].
For `O=C(c1ccccn1)C1CCCN(Cc2nc(Cc3cccc(F)c3)no2)C1` (stereo unspecified), the Potency was inconclusive [inhibitor, single point].
In the case of `CCN(c1ccccc1)S(=O)(=O)c1ccc(OC)c(NC(=O)Cc2ccc(F)cc2)c1`, the Potency is reported as inconclusive [inhibitor, single point].
For `Cc1occc1C(=O)N/N=C/c1ccc(OCc2ccccc2)cc1`, the Potency was inconclusive [inhibitor, single point].
In the case of `COc1ccc(C(=O)OCC(=O)NCCc2ccc(F)cc2)cc1S(=O)(=O)N1CCOCC1`, the “activity change, negative = growth inhibition” value is reported as inactive: -5%.
With `CCCn1cc(CN2CCC(Cc3ccccc3)(C(=O)OCC)CC2)c(C)n1` the Potency was inconclusive [inhibitor, single point].
For `CC1(C)CC(NC(=O)C2CCCCC2)CC(C)(C)N1`, the “activity change, negative = growth inhibition” value was inactive: 1.45%.
For `Cc1ccc2nc(Cl)c(CN(C(=O)c3cnccn3)C3CCCCC3)cc2c1`, the Potency was inconclusive [inhibitor, single point].
With `CCOc1ccccc1NC(=O)c1nc(-c2ccccc2)oc1C` the Potency was inconclusive [inhibitor, single point].
For `C=C(C)C(=O)Oc1ccc(N2C(=O)CCC2=O)cc1`, the Potency was inconclusive [inhibitor, single point].
For `COc1ccc(-c2cc(C(F)(F)F)n3nc(C(=O)Nc4cccc(C(F)(F)F)c4)c(Br)c3n2)cc1`, the Potency was active: 13 µM.
In the case of `Cc1nc(N2CCOCC2)nc(Oc2ccccc2)c1[N+](=O)[O-]`, the “activity change, negative = growth inhibition” value is reported as inactive: -8.4%.
In the case of `CC1(C)CC(=O)C2=C(C1)N=C1SCCC(=O)N1C2c1ccc(C(F)(F)F)cc1` (stereo unspecified), the Potency is reported as inconclusive [inhibitor, single point].
For `CC(=N\NC(=O)c1ccc([N+](=O)[O-])cc1)/C(=N/O)C(=O)Nc1ccccc1`, the Potency was inconclusive [inhibitor, single point].
In the case of `CCOC(=O)c1c(C)c(C(=O)Nc2ccc(N(C)C)cc2)c(C)n1CC`, the Potency is reported as active: 7.31 µM.
In the case of `Cc1ccc(C)c(NC(=S)N/N=C/C(C)c2ccccc2)c1` (stereo unspecified), the Potency is reported as inconclusive [inhibitor, single point].
For `COC(=O)c1cc2c(ccn2-c2ccc(F)cc2)n1Cc1ccc(C#N)cc1`, the Potency was inconclusive [inhibitor, single point].
In the case of `CN(Cc1ccccc1)c1nc2nonc2nc1N1CCCC(CN2CCCC2=O)C1` (stereo unspecified), the Potency is reported as inconclusive [inhibitor, partial curve].
With `O=[N+]([O-])c1ccc(N/N=C/c2sc(N3CCOCC3)nc2-c2ccccc2)c(S(=O)(=O)Nc2ccc(Cl)cc2)c1` the Potency was active: 1.64 µM.
In the case of `c1ccc2c(c1)CNC1(CCCCC1)C2`, the Potency is reported as inconclusive [inhibitor, single point].
With `CCOC(=O)/C=C/C(=O)OCC(=O)Nc1ccc([N+](=O)[O-])cc1` the Potency was inconclusive [inhibitor, single point].
With `COc1ccc(NC(=S)N(CCO)Cc2cc3c(C)cc(C)cc3[nH]c2=O)cc1` the Potency was inconclusive [inhibitor, single point].
With `CN(C)c1ccc(/C=N/Nc2ccc(-n3ccnc3)nn2)cc1` the Potency was inconclusive [inhibitor, single point].
With `Cc1onc(-c2ccccc2)c1C(=O)N(Cc1ccccc1)C(C)C` the Potency was inconclusive [inhibitor, partial curve].
With `CCCC(C(=O)NCCC(C)C)N(Cc1ccccc1Cl)C(=O)c1snc(C(N)=O)c1N` (stereo unspecified) the Potency was inconclusive [inhibitor, single point].
For `CC1=C(c2ccc(Cl)cc2)S(=O)(=O)N=C1N1CCN(c2cccc(C(F)(F)F)c2)CC1`, the Potency was active: 8.2 µM.
For `Oc1ccc(C=NNC(=S)Nc2ccccc2)nc1`, the Potency was active: 5.17 µM.
In the case of `O=C(O)C(Cc1c[nH]c2ccccc12)N1Cc2ccccc2C1=O` (stereo unspecified), the “activity change, negative = growth inhibition” value is reported as inactive: 1.58%.
For `O=C(NNc1nc(-c2ccccc2)c2cc(Br)ccc2n1)c1ccc(S(=O)(=O)N2CCOCC2)cc1`, the Potency was inconclusive [inhibitor, partial curve].
In the case of `CN(Cc1cccc(Cl)c1Cl)c1ccc(S(=O)(=O)N2CCCCC2)cc1[N+](=O)[O-]`, the Potency is reported as inconclusive [inhibitor, single point].
In the case of `C=CCn1c(SCc2c(C)noc2C)nc2sc(C)c(C)c2c1=O`, the Potency is reported as active: 20.6 µM.
With `CCn1c(SCc2ccccc2)nnc1C1CCN(S(=O)(=O)c2ccc(OC)cc2)CC1` the Potency was inconclusive [inhibitor, single point].
In the case of `COc1cc(OC)c(C2=NOC(C(=O)NCc3ccc4c(c3)OCO4)C2)cc1Cl` (stereo unspecified), the Potency is reported as inconclusive [inhibitor, single point].
With `CC1CCCCN1S(=O)(=O)c1ccc(C(=O)Nc2nnc(-c3ccccn3)o2)cc1` (stereo unspecified) the “activity change, negative = growth inhibition” value was inactive: -22.6%.
With `Cc1ccc[n+](CC(=O)c2ccc(Br)cc2)c1C` the “activity change, negative = growth inhibition” value was inactive: -4.24%.
For `COc1cccc(-c2nnc(SCC(N)=O)n2-c2ccc(Cl)cc2)c1`, the activity change, negative = growth inhibition was inconclusive: -31% [inhibitor].
With `COc1cccc(-c2nnc(-c3ccco3)o2)c1` the Potency was inconclusive [inhibitor, partial curve].
With `CCN(c1ccccc1)S(=O)(=O)c1ccc(C(=O)NC2CCN(Cc3ccccc3)CC2)cc1` the Potency was active: 8.2 µM.
With `Cc1ccc2nc(N3CCN(C(=O)c4ccccc4F)CC3)c(C#N)cc2c1` the Potency was inconclusive [inhibitor, single point].
In the case of `CCOC(=O)CN1N=C(c2ccc(Cl)s2)CSC1=O`, the “activity change, negative = growth inhibition” value is reported as inactive: -68.8%.
In the case of `CCNC(=O)/C(C#N)=C/c1c(N2CCN(c3cccc(Cl)c3)CC2)nc2c(C)cccn2c1=O`, the Potency is reported as inconclusive [inhibitor, single point].
For `COc1ccc(NC(=O)CN(C)C(=O)Cc2c[nH]c3ccccc23)cc1`, the “activity change, negative = growth inhibition” value was inactive: -5.27%.
With `Cc1ccc(NC(c2nnc(-c3ccccc3)o2)c2ccccc2F)c([N+](=O)[O-])c1` (stereo unspecified) the “activity change, negative = growth inhibition” value was inactive: -23.3%.
For `O=[N+]([O-])c1ccc(N2CCN(c3ccc(O)cc3)CC2)c(Cl)c1`, the “activity change, negative = growth inhibition” value was inactive: -70.1%.
For `CCCOc1ccc(F)cc1-c1cc(C(=O)Nc2cc(OC)c(OC)c(OC)c2)[nH]n1`, the Potency was active: 8.2 µM.
In the case of `CC1C/C(=N/Nc2nc3ccccc3[nH]2)CC(C)(C)C1` (stereo unspecified), the Potency is reported as active: 20.6 µM.
In the case of `O=C(Nc1c(C(=O)Nc2cccc(C(F)(F)F)c2)oc2ccccc12)c1cc(=O)c2ccccc2o1`, the Potency is reported as active: 4.11 µM.
With `O=C(c1ccc(Cl)s1)N1CCN(c2nc3ccccc3s2)CC1` the Potency was inconclusive [inhibitor, partial curve].
With `CCC1CCCCN1C(=O)Cn1c(=O)n(CCCCCC(=O)NCc2ccc(F)cc2)c(=O)c2sccc21` (stereo unspecified) the Potency was inconclusive [inhibitor, single point].
In the case of `Cc1noc(C)c1NC(=O)N(C)C[C@@H]1OCc2cnnn2CCCC(=O)N([C@@H](C)CO)C[C@@H]1C`, the “activity change, negative = growth inhibition” value is reported as inactive: -9.12%.
In the case of `COc1cc(/C=C2\C(=N)N3N=CSC3=NC2=O)cc(Br)c1OC(=O)c1ccco1`, the Potency is reported as inconclusive [inhibitor, partial curve].
With `O=C(CC1OCC2CCCN2C1=O)Nc1ccc([N+](=O)[O-])cc1` (stereo unspecified) the Potency was active: 16.4 µM.
With `CCOC(=O)Cc1csc(NC(=O)c2cc3ccccc3o2)n1` the Potency was inconclusive [inhibitor, single point].
For `Cc1nnc(SCC(=O)NC2CCCCC2)[nH]c1=O`, the “activity change, negative = growth inhibition” value was inactive: -23.3%.
With `Cc1cccc(C(=O)N2CCc3cc(-c4nc(NC(=O)CN5CCCC5)sc4C)ccc32)c1` the Potency was inconclusive [inhibitor, single point].
For `Cc1ccc(NC(=S)NC(=O)c2ccc(-c3ccccc3)cc2)cc1`, the Potency was active: 6.51 µM.
